The whole screen tested about 230,000 compounds, of which about 3,600 (1.6%) were called active. This list was built around the results that the source calls inconclusive (neither active nor inactive); the mix of calls is not that of the screen. Calls follow the shape of the dose curve; as a rule, active = well fitted inhibition curve with a large enough effect (not every such curve was filed as active); inconclusive = small, poorly fitted or top-dose-only effect, or another doubt; inactive = no such curve, though single readings can be large or run the other way. Where the call is inconclusive, the potency comes from a doubtful curve fit.
Target: Lysine-specific demethylase 4E (Homo sapiens) (UniProt B2RXH2)
Sequence of UniProt B2RXH2 (B2RXH2 whole entry, looked up, the tested form may be a part): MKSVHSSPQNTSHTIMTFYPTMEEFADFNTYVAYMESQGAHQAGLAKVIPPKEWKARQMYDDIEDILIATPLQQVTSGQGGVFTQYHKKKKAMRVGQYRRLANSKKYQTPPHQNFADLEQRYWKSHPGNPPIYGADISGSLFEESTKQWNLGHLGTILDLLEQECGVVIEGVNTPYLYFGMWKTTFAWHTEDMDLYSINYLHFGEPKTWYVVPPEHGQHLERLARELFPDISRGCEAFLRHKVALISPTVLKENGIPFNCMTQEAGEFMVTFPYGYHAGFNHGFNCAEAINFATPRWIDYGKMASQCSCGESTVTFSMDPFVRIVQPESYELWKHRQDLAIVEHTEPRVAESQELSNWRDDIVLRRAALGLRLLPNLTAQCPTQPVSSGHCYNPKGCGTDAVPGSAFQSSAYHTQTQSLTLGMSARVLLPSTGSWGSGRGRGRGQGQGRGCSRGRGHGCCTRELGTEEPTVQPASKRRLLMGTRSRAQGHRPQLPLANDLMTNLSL
Test: qHTS Assay for Inhibitors of Human Jumonji Domain Containing 2E (JMJD2E)
Details: JMJD2E catalytic domain, FDH-coupled NADH fluorescence (FDH is formaldehyde dehydrogenase); series mostly up to 57.1 µM; activity change, negative = inhibition: at the top concentration
Also: nearly all actives have a fitted effect of over 50% in size.
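For activity change, negative = inhibition in this document: 0% = wells with enzyme and -100% = buffer wells without enzyme.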
Potency is read from the fitted curve at half-maximal effect; tags tell the direction and shape of the fitted curve.

Compound	activity change, negative = inhibition	Potency
COc1ccc(Cl)cc1C(=O)NNC(=O)C1COc2ccccc2O1 (stereo unspecified)	inactive: -2.65%	–
CC(=O)c1ccc(S(=O)(=O)Nc2ccc(-c3ccc4nnc(C)n4n3)cc2)cc1	–	inconclusive: 25.1 µM [inhibitor, single point]
COc1ccc2[nH]c(C(=O)O)c(CCNC(C)=O)c2c1	–	inconclusive: 25.1 µM [inhibitor, partial curve]
COc1ccc2c(c1)O[C@H](c1ccc3c(c1)OCO3)[C@@H](OC(=O)Nc1cc(OC)c(OC)c(OC)c1)C2=O	–	inconclusive: 15.8 µM [inhibitor, partial curve, poor fit]
CCN1CCN(Cc2c(O)ccc3c2O/C(=C\c2ccc(C)cc2)C3=O)CC1	–	inconclusive: 35.5 µM [inhibitor, single point]
O=c1c2ccccc2c(C=Nc2cccc(O)c2)c(O)n1-c1ccc2c(c1)OCO2	–	inconclusive: 25.1 µM [inhibitor, single point]
CCNC(=O)NC(=O)C(C)OC(=O)c1cccn1C (stereo unspecified)	inactive: 0.0201%	–
CCN(CC)S(=O)(=O)c1ccc(C(=O)Nc2cc3oc4ccccc4c3cc2OC)cc1	–	inconclusive: 31.6 µM [inhibitor, single point]
COc1ccc([C@H]2CC(=O)c3c(O)cc(O)cc3O2)cc1O	inactive: -6.13%	–
COc1cc(OC)c(N(C)S(=O)(=O)c2cccc(C(=O)OCC(=O)c3c[nH]c4ccccc34)c2)cc1Cl	inactive: 8.17%	–
CCCCN(CCCC)c1ncnc2nc[nH]c12	inactive: -5.57%	–
COc1cc([N+](=O)[O-])cc(/C=N\NC(=O)C2COc3ccccc3O2)c1O (stereo unspecified)	–	inconclusive: 35.5 µM [inhibitor, single point]
COC(=O)c1ccc(Oc2c(C)oc3c(CN4CCN(C)CC4)c(O)ccc3c2=O)cc1	–	inconclusive: 0.708 µM [inhibitor, partial curve, poor fit]
Cc1ccc(/C=N/n2cc(-c3ccccc3)[nH]c2=S)s1	–	inconclusive: 28.2 µM [inhibitor, single point]
O=C(/C=C/c1ccco1)NCCCN1CCOCC1	inactive: -0.694%	–
Cc1csc(NC(=O)c2ccccc2O)n1	–	inconclusive: 12.6 µM [inhibitor, partial curve]
COc1ccccc1OCC(=O)Nc1oc(-c2ccccc2)c(-c2ccccc2)c1C#N	–	inconclusive: 22.4 µM [inhibitor, partial curve]
COc1ccc(/C=N/OC(=O)c2ccc(Cl)cc2)c(Cl)c1OC	inactive: -1.95%	–
Cc1c(C(=O)Nc2ccc(F)cc2)oc2ccc(S(=O)(=O)N3CCCC3)cc12	–	inconclusive: 39.8 µM [inhibitor, single point]
O=[N+]([O-])c1ccc(O)c(/C=N/NC(=S)Nc2ccc(Cl)cc2Cl)c1	–	active: 8.91 µM
Cc1nnc(N2CCOCC2)c2nn(-c3ccccc3)c(C)c12	–	inconclusive: 39.8 µM [inhibitor, single point]
CCOC(=O)N1CCC(NC(=O)c2ccc3c(c2)sc2nc(-c4ccccc4)cn23)CC1	–	inconclusive: 25.1 µM [inhibitor, partial curve]
CC1CCc2nc(N)c(C#N)c(-c3cccn3C)c2C1 (stereo unspecified)	–	inconclusive: 31.6 µM [inhibitor, single point]
C=CCOC(=O)COc1ccc2c(C)c(C)c(=O)oc2c1	–	inconclusive: 28.2 µM [inhibitor, partial curve]

Compound	activity change, negative = inhibition	Potency
Cc1c(Cl)cnc(NC(=O)COC(=O)c2ccc3ncsc3c2)c1Cl	inactive: -28.7%	–
COc1ccc(S(=O)(=O)Nc2ccc(N3CCOCC3)nc2)cc1	–	inconclusive: 35.5 µM [inhibitor, single point]
COc1ccc(N2CCC(CNC(=S)Nc3c(C)cc(C)cc3C)C2)cc1 (stereo unspecified)	–	inconclusive: 28.2 µM [inhibitor, single point]
NC(=O)NC(=O)COC(=O)c1ccccc1OCc1ccc(F)cc1	–	inconclusive: 39.8 µM [inhibitor, single point]
N#Cc1ccc(OCC(=O)N2CCN(S(=O)(=O)c3cccs3)CC2)cc1	inactive: -2.08%	–
CC(C)(C)NC(=O)NC(=O)COc1ccccc1C#N	–	inconclusive: 39.8 µM [inhibitor, single point]
Cc1cccnc1Sc1c([N+](=O)[O-])ncn1C	inactive: -2.56%	–
O=C(NC(=S)N1CCN(CCO)CC1)C12CC3CC(CC(C3)C1)C2	–	inconclusive: 0.355 µM [inhibitor, partial curve, poor fit]
Cc1cc(C)c2nc3nc(C)c(C)cc3c(N)c2c1	–	inconclusive: 31.6 µM [inhibitor, partial curve]
C#CCn1c(=NC(=O)c2ccc(Br)s2)sc2cccc(OC)c21	–	inconclusive: 31.6 µM [inhibitor, single point]
CC(=O)c1ccc(N2CCN(C(=O)c3nn(Cc4ccccc4)c(=O)c4ccccc34)CC2)cc1	–	inconclusive: 25.1 µM [inhibitor, single point]
O=C(Nc1cccs1)Nc1c(F)cc(F)cc1Br	inactive: -7.64%	–
COC(=O)c1[nH]c2ccccc2c1NC(=O)CNC1CCCCC1	–	inconclusive: 28.2 µM [inhibitor, single point]
Cc1ccc(Cn2ccc(NC(=O)c3noc4c3CCc3ccccc3-4)n2)cc1	inactive: 175%	–
Cc1cc(C)c2cc(C#N)c(NCCCNC(=O)CCC(=O)O)nc2c1	–	inconclusive: 31.6 µM [inhibitor, partial curve]
CC1S/C(=N/N=C/c2ccco2)N(Cc2ccccc2)C1=O (stereo unspecified)	–	inconclusive: 39.8 µM [inhibitor, single point]
N#CCCCCN1CCCC1	inactive: -1.97%	–
CCC(C)(C)n1nnnc1CN(Cc1ccco1)Cc1cc2cc3c(cc2[nH]c1=O)OCO3	–	inconclusive: 35.5 µM [inhibitor, partial curve]
Fc1ccc(C2=CC(c3ccco3)n3ncnc3N2)cc1 (stereo unspecified)	–	inconclusive: 28.2 µM [inhibitor, partial curve]
Cc1c(NS(C)(=O)=O)cccc1-c1nc2cccnc2s1	inactive: -26.9%	–
CCOC(=O)c1c(-c2ccccc2)csc1NC(=O)c1cc(S(=O)(=O)N2CCOCC2)ccc1C	–	inconclusive: 1 µM [inhibitor, full curve]
CCc1ccc(-n2c(C)cc(/C=N/NC(=O)OC)c2C)cc1	–	active: 10 µM
Cc1ccc(NC2=C(N3CCCCC3)C(=O)c3ccccc3C2=O)cc1	inactive: 1.3%	–
Cc1ccc(NC(=O)c2cccc3c2C(=O)N(C2CCCCC2)C3)cc1	–	inconclusive: 28.2 µM [inhibitor, partial curve]

Compound	activity change, negative = inhibition	Potency
CC(C)CCNC(=O)Cc1c(C(=O)O)[nH]c2ccc(Cl)cc12	–	inconclusive: 31.6 µM [inhibitor, single point]
Cc1ccc(C(=O)C[n+]2cccc3ccccc32)cc1	–	inconclusive: 39.8 µM [inhibitor, single point]
CSc1sc(C(=O)NCC2CC2)c(-c2cccs2)c1C#N	inactive: -7.27%	–
Cc1nn(-c2ccccc2)c(C)c1/C=N/N1CCN(Cc2ccccc2)CC1	inactive: -2.43%	–
CNC(=O)NC(=O)COC(=O)c1n[nH]c2ccccc12	–	inconclusive: 31.6 µM [inhibitor, single point]
COc1cccc(CNCC(=O)Nc2ccc(N3CCOCC3)cc2)c1	–	inconclusive: 25.1 µM [inhibitor, single point]
CN1CCC(N(C)C(=O)/C=C/c2cn(-c3ccccc3)nc2-c2cccs2)CC1	–	inconclusive: 28.2 µM [inhibitor, partial curve]
CCCC(=O)Nc1nc(C)c(-c2csc(Nc3cc(OC)ccc3OC)n2)s1	–	inconclusive: 39.8 µM [inhibitor, single point]
CC(=O)Nc1ccc(NC(=O)C2CCC(CNS(=O)(=O)c3cccc4nsnc34)CC2)cc1 (stereo unspecified)	–	inconclusive: 3.55 µM [inhibitor, single point]
COc1cc(NC(=O)c2ccc(N)nc2)cc(C(=O)Nc2cccc(C(F)(F)F)c2)c1	–	inconclusive: 25.1 µM [inhibitor, single point]
CCc1cc2ccc(OC)cc2nc1SCC(=O)Nc1cc(C)on1	–	inconclusive: 39.8 µM [inhibitor, single point]
COC(=O)[C@@H]1C[C@H]1[C@@H](NC(=O)Oc1ccc(F)cc1)c1ccccc1	inactive: 4.2%	–
COc1ccc(Cc2n[nH]c(=O)c3ccccc23)cc1OC	inactive: 9.97%	–
Cc1cccc(-c2cc(=O)c3cc(C)ccc3o2)c1	–	inconclusive: 35.5 µM [inhibitor, partial curve]
CCNc1nc(C)cc(COC)c1C#N	–	inconclusive: 31.6 µM [inhibitor, partial curve]
CC(C)C1N=C2c3ccccc3N=C(SCC(=O)c3ccc(O)c(O)c3)N2C1=O (stereo unspecified)	–	active: 25.1 µM
Cc1ccc(NC(=O)c2noc3c2CCCCC3)cc1	–	inconclusive: 39.8 µM [inhibitor, single point]
NNc1nc(-c2ccccc2Cl)nc2sc3c(c12)CCCC3	–	inconclusive: 25.1 µM [inhibitor, single point]
N#Cc1c(N)nc(SCC(=O)OCc2ccccc2)c(C#N)c1-c1ccco1	–	inconclusive: 31.6 µM [inhibitor, single point]
Cc1ccc(C(=O)ON=C2CCN(c3ccc([N+](=O)[O-])cc3)CC2)cc1	inactive: 5.06%	–
Cc1cc(C)nc(NS(=O)(=O)c2ccc(CC(C)C)cc2)c1	–	inconclusive: 15.8 µM [inhibitor, partial curve]
O=C(CCN1C(=O)c2ccccc2C1=O)OCN1C(=O)c2ccccc2C1=O	inactive: -6.9%	–
COc1ccc(CNC(=O)c2cccc(N(C)C)c2)cc1	–	inconclusive: 28.2 µM [inhibitor, single point]

— PubChem BioAssay AID2147 (National Center for Advancing Translational Sciences (NCATS), 2009)
